Experimental data: the supplement of paper PMC9433436
± gives the standard deviation of the averaged measurements. Whole data set: some 4,100 sequences, median “relative kcat/Km (krel) vs genomic leader AAAGAU” near 1.7, cut for the highest 2% near 6.5. This is a selection; strong and weak results do not stand in their true shares.

Target: T1, E. coli RNase P holoenzyme (M1 P RNA + rnpA protein) (UniProt P0A7Y8)
T1 sequence: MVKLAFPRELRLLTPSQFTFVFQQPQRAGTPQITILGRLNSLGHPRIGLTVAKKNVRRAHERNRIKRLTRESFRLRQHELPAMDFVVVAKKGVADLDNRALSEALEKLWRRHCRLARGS
Test: relative kcat/Km (krel) vs genomic leader AAAGAU (relative (reference leader = 1)); higher = faster RNase P cleavage
Outline: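 Relative kcat/Km (krel) values came from internal competition kinetics on sequencing read ratios, normalised to the genomic leader and averaged over two technical replicates. A precursor tRNA-Met pool with randomized leader positions −6 to −1 was cleaved by E. coli RNase P holoenzyme (P RNA plus C5 protein) under multiple-turnover conditions at 37 °C. The buffer held 50 mM Tris-HCl pH 8, 100 mM NaCl and 17.5 mM MgCl2, and unreacted precursor was gel-purified at ~5–30% conversion, made into cDNA libraries and Illumina-sequenced.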

[1] = fraction of substrate reacted: ~9-10% (9.79% repeat 1, 9.1% repeat 2)
[2] = fraction of substrate reacted: ~13-16% (15.68% repeat 1, 13.17% repeat 2)
[3] = fraction of substrate reacted: ~26-29% (28.66% repeat 1, 26.4% repeat 2)

Row | Sequence | relative kcat/Km [1] | relative kcat/Km [2] | relative kcat/Km [3]
1 | GTACTT | 2.05 ± 0.35 | 2.49 ± 0.45 | 3 ± 1.2
2 | TATGAC | 2.5 ± 0.71 | 3.46 ± 0.18 | 5.65 ± 2.8
3 | GGAGGA |  | 1.36 ± 0.53 | 1.57 ± 1
4 | ATTGCT | 0.546 ± 0.2 | 0.554 ± 0.29 | 0.93 ± 0.35
5 | AGCCAC | 3.06 ± 0.9 | 3.5 ± 0.98 | 4.97 ± 1.8
6 | CTACAA | 1.7 ± 0.25 | 2.44 ± 0.77 | 3.29 ± 1.6
7 | GGCGTT |  | 0.792 ± 0.15 | 1.12 ± 0.49
8 | AGTCAT | 3.31 ± 1.6 | 5 ± 1.1 | 6.79 ± 3.2
9 | GCCCCA | 2.31 ± 0.65 | 1.87 ± 0.068 | 2.85 ± 0.93
10 | CGAATT | 1.72 ± 0.48 | 2.27 ± 0.76 | 2.43 ± 1.1
11 | ATGGAC |  | 0.764 ± 0.61 | 0.869 ± 0.56
12 | TGGCTT | 0.632 ± 0.3 | 1.43 ± 0.2 | 1.28 ± 1.2
13 | ACCATT | 2.5 ± 1.4 | 2.84 ± 0.28 | 4.27 ± 1.3
14 | GAGTTT | 1.6 ± 0.65 | 1.28 ± 0.17 | 2.05 ± 0.46
15 | TCGTTA | 2.56 ± 0.7 | 2.65 ± 0.66 | 3.9 ± 1.4
16 | CAAGTA | 1.01 ± 0.55 | 1.16 ± 0.49 | 1.44 ± 0.79
17 | CAATAC | 2.65 ± 0.75 | 4.12 ± 0.85 | 5.19 ± 2.1
18 | AACTGT | 0.625 ± 0.14 | 0.97 ± 0.59 | 0.608 ± 0.51
19 | ACTCGA | 1.74 ± 0.93 | 2.54 ± 1.1 | 3.65 ± 2
20 | GGTACG | 0.17 ± 0.045 | 0.269 ± 0.21 | 0.942 ± 0.29
21 | AGGGTG |  |  | 0.781 ± 0.46
22 | AAGGCC | 1.03 ± 0.69 | 0.769 ± 0.38 | 0.617 ± 0.19
23 | AAATAC | 3.07 ± 1.1 | 3.56 ± 0.56 | 4 ± 1.8
24 | GGGTCT | 1.04 ± 0.47 | 1.13 ± 0.23 | 1.37 ± 0.76
25 | CGCAGG | 0.668 ± 0.38 |  | 0.94 ± 0.17
26 | CGAAAA | 2.58 ± 0.86 | 2.7 ± 0.77 | 3.14 ± 0.49

Row | Sequence | relative kcat/Km [1] | relative kcat/Km [2] | relative kcat/Km [3]
27 | GCAAAA | 1.46 ± 0.48 | 1.01 ± 0.16 | 1.62 ± 0.085
28 | AACTAG | 3.36 ± 2.5 | 2.8 ± 0.61 | 3.95 ± 1.3
29 | GTGAGC | 1.37 ± 0.77 |  | 0.899 ± 0.22
30 | GAAAGC | 0.551 ± 0.55 | 1.1 ± 0.23 | 1.65 ± 0.33
31 | CGACAA | 2.26 ± 0.23 | 2.76 ± 0.51 | 3.75 ± 1.6
32 | CACTGT | 1.07 ± 0.037 | 0.947 ± 0.35 | 1.51 ± 1.1
33 | GTGCGC | 1.02 ± 0.27 | 0.935 ± 0.55 | 1.09 ± 0.13
34 | GGCGGA | 0.884 ± 0.18 |  | 0.846 ± 0.087
35 | ACCTGG |  | 0.57 ± 0.51 | 0.814 ± 0.66
36 | TACGAG |  | 1.58 ± 0.12 | 3.95 ± 1.1
37 | ACGCTT | 2.26 ± 1.3 | 1.75 ± 0.037 | 2.37 ± 0.48
38 | CGCAAG | 1.46 ± 0.29 |  | 2.65 ± 0.79
39 | TGACCC | 1.17 ± 0.58 | 1.43 ± 0.08 | 2.4 ± 0.75
40 | TATTGT | 0.735 ± 0.4 |  | 
41 | CAGTGG | 0.302 ± 0.14 |  | 0.408 ± 0.26
42 | GCCAGA | 2.6 ± 2 | 2.26 ± 0.32 | 5.56 ± 1.6
43 | CGGTGG |  |  | 0.504 ± 0.058
44 | GGGAGC | 1.09 ± 0.46 | 0.558 ± 0.31 | 1.57 ± 0.53
45 | GTGTTT | 1.1 ± 0.71 | 1.047 ± 0.0059 | 1.58 ± 0.46
46 | GTAGAG | 0.308 ± 0.012 |  | 1.61 ± 0.57
47 | ACGTAA | 3.08 ± 0.62 | 3.67 ± 0.69 | 4.77 ± 1.8
48 | ACCACT |  | 0.207 ± 0.16 | 2.06 ± 0.71
49 | TTCGGT |  |  | 3.02 ± 2.2
50 | TAGGAA | 1.43 ± 0.52 | 1.98 ± 0.13 | 2.09 ± 1.2
51 | GCAATC |  | 1.31 ± 0.5 | 1.5 ± 0.14
52 | AGCAAG |  | 0.819 ± 0.47 | 1.88 ± 0.14

Row | Sequence | relative kcat/Km [1] | relative kcat/Km [2] | relative kcat/Km [3]
53 | GCCGTT | 1.32 ± 0.54 | 1.13 ± 0.51 | 1.97 ± 0.41
54 | GTAGGC |  |  | 2.05 ± 1.9
55 | AACTTT | 3.39 ± 1.9 | 3.57 ± 0.39 | 4.58 ± 1.3
56 | CAAGCT | 1.48 ± 1.3 | 0.905 ± 0.4 | 1.37 ± 0.37
57 | CATTCT | 2.79 ± 1.2 | 3.18 ± 0.076 | 4.94 ± 2
58 | TCCCCT | 3.28 ± 1.2 | 3.35 ± 0.21 | 4.76 ± 1.9
59 | TAGATA | 2.17 ± 1.9 | 1.51 ± 0.61 | 1.57 ± 0.091
60 | TATACG |  | 0.461 ± 0.31 | 1.68 ± 0.28
61 | CAACGT |  |  | 1.63 ± 1.3
62 | ACGTCG | 0.568 ± 0.2 | 0.215 ± 0.19 | 1.77 ± 0.74
63 | TTATGC | 3.22 ± 0.63 | 4.29 ± 0.74 | 6.16 ± 2.8
64 | CTTAAA | 2.84 ± 0.53 | 3.1 ± 0.059 | 4.16 ± 1.7
65 | CTCCTT | 3.67 ± 1.4 | 4.28 ± 0.77 | 6.06 ± 2.3
66 | GGAACC | 1.31 ± 0.59 | 0.943 ± 0.18 | 1.19 ± 0.1
67 | TGGCCC | 1.09 ± 0.3 | 1.02 ± 0.47 | 0.704 ± 0.26
68 | TGTCTA | 1.53 ± 0.11 | 2.45 ± 0.35 | 3.36 ± 1.4
69 | GCAACA |  | 0.326 ± 0.15 | 0.512 ± 0.39
70 | ACTGTG |  |  | 0.633 ± 0.34
71 | GACTTG |  | 1.11 ± 0.46 | 2.5 ± 0.16
72 | CTGGGC | 0.978 ± 0.65 |  | 
73 | CGTACC |  | 1.08 ± 0.15 | 2.06 ± 0.55
74 | TAACTT | 2.28 ± 0.99 | 2.24 ± 0.28 | 2.7 ± 1
75 | GGAGAC | 2.08 ± 1.6 | 1.75 ± 0.35 | 2.59 ± 0.3
76 | GTGAAA | 1.27 ± 0.4 | 1.73 ± 0.38 | 2.56 ± 0.8
77 | TGGATA | 0.452 ± 0.072 |  | 0.938 ± 0.49
78 | AATCAT | 3.17 ± 2 | 2.88 ± 0.24 | 4.38 ± 1.7

Row | Sequence | relative kcat/Km [1] | relative kcat/Km [2] | relative kcat/Km [3]
79 | GAGACT | 0.969 ± 0.47 | 0.865 ± 0.66 | 1.65 ± 0.52
80 | TTCCCC | 3.49 ± 1.7 | 4.17 ± 0.71 | 5.59 ± 1.9
81 | TGGGGC | 0.418 ± 0.024 |  | 1.58 ± 1.6
82 | TCCGAG | 2.34 ± 0.033 | 2.52 ± 1.4 | 5.01 ± 2.2
83 | AGATGC | 2.42 ± 0.73 | 2.8 ± 0.16 | 3.74 ± 0.99
84 | CGCGCT | 1.66 ± 0.52 | 0.984 ± 0.065 | 1.71 ± 0.53
85 | AAGGAA |  | 1.09 ± 0.62 | 0.94 ± 0.12
86 | GGTTAT | 0.926 ± 0.33 | 1.69 ± 0.19 | 2.83 ± 1.2
87 | GCTTAC | 2.22 ± 0.41 | 2.79 ± 0.81 | 4.83 ± 1.6
88 | ATGATT | 1.48 ± 0.2 | 1.78 ± 0.25 | 2.22 ± 0.77
89 | GGGAAT | 0.982 ± 0.17 | 1.33 ± 0.69 | 1.92 ± 1.2
90 | GCACGG |  |  | 0.359 ± 0.29
91 | GGCTCA | 1.63 ± 0.079 | 1.25 ± 0.021 | 1.77 ± 0.47
92 | GCTAGA | 1.329 ± 0.007 | 1.71 ± 0.21 | 2.45 ± 0.62
93 | GTTAGA | 2.272 ± 0.0048 | 3 ± 0.72 | 4.67 ± 1.6
94 | TAGAAG |  | 0.971 ± 0.93 | 2.34 ± 0.089
95 | CTACAG |  | 1.24 ± 0.24 | 1.8 ± 0.45
96 | CATTGA | 4.03 ± 2.1 | 4.09 ± 1.6 | 6.51 ± 2.6
97 | CTTTGC | 3.95 ± 1.4 | 4.28 ± 0.71 | 5.73 ± 1.8
98 | CAGTCA | 1.56 ± 0.78 | 1.64 ± 1.4 | 2.56 ± 1.5
99 | CGCGAC | 1.93 ± 0.92 | 2.57 ± 0.49 | 4.42 ± 1.3
100 | TACCTC | 2.58 ± 1.4 | 2.74 ± 0.5 | 4.62 ± 1.9
101 | ACGTAG | 1.96 ± 1.1 | 1.27 ± 0.019 | 2.69 ± 1.1
102 | AATTTA | 1.65 ± 0.69 | 1.63 ± 0.14 | 2.33 ± 0.76
